{"source": "the RNAGym collection of RNA variant scans (doi:10.7554/elife.90254)", "parents": {"B1": {"name": "LINE1-mini (parent)", "chain": "GGCAGAGCUCAACACAGCGUGGCAAAGUGGCUGUGGCUAGACUGCC"}}, "note": "The source gives no read counts; variants with many changes may rest on few reads."}
{"variants_of": "B1", "assay": "self-cleavage, relative activity (ratio to wild type); higher = more cleavage; in vitro, sequencing; the parent is a self-cleaving ribozyme"}
{"variant": "GGCAGAGCUAACCACAGCGUGGCAAAGUGGCGGUGGCUAGACUGCC", "self-cleavage": 0.01}
{"variant": "GGCAGAGCUAAACACUGCGUGGCAAAGUGGCUGUGGAUAGACUGCC", "self-cleavage": 0.02}
{"variant": "GGCAGAGCUAAGCACAGCGUGGCAAAGUGGCUGUGGGUAGACUGCC", "self-cleavage": 0.03}
{"variant": "GGCAGAGCUAAACCCAGCGUGGCAAAGUGGCUGUGGCUCGACUGCG", "self-cleavage": 0.01}
{"variant": "GGCAGAGCUAAACACCGCGUGGCAAAGUGGCUUUGGCUAGACUGCC", "self-cleavage": 0.02}
{"variant": "GGCAGAGCUACACACAGCGUGGCAAAAUAUCUGUGGCUAGACUGCC", "self-cleavage": 0.02}
{"variant": "GGCAGAGCUAAACACGGCGUUGCAAAGUGGCUGUGGGUAGACUGCC", "self-cleavage": 0.01}
{"variant": "GGCAGAGCUAGACACAGCGUGUCAAAGUGGCUGUGGCUAGACUGCC", "self-cleavage": 0.03}
{"variant": "GGCAGAGCUAAACACGGCGUGGCAAAGUGGCUGUGGCUAGACUCCC", "self-cleavage": 0.05}
{"variant": "GGCAGAGCUAAUCAUAGCGUGGAAAAGUGGCUGUGGCUAGGCUGCA", "self-cleavage": 0}
{"variant": "GGCAGAGCUAAUCACAGUGUAGCAAAGUGGCUUUGGCUAGACUGCC", "self-cleavage": 0.01}
{"variant": "GGCAGAGCUAACCACAGCUUGGCUAAGUAGCUGUGGCUAAACUGCC", "self-cleavage": 0.01}
{"variant": "GGCAGAGCUAAACACCGCGUGGCAAAGUGGCUGUGGCUAGCCUGCC", "self-cleavage": 0}
{"variant": "GGCAGAGCUAUACAGAGCGUGGCAAUGUGGCUGUGGCUCGACUGCC", "self-cleavage": 0.01}
{"variant": "GGCAGAGCUAAACACGGCGUGGAAAAGUGGCUGUGGCUAGACUGCC", "self-cleavage": 0.01}
{"variant": "GGCAGAGCUACACACAGCUUGGCAAAGUGGCUGUGGCUAGUCUGCC", "self-cleavage": 0.03}
{"variant": "GGCAGAGCUACACACAGCGUGCCAAAGUGGCUGUGGCUAGUCUGCC", "self-cleavage": 0}
{"variant": "GGCAGAGCUAAACGCGGCGUGGCAAAGUGGCUGUGGCUAGAAUGCC", "self-cleavage": 0.01}
{"variant": "GGCAGAGCUAAACACGGCGUGGCAAAGUGGGUGUGGCUAGACUGCC", "self-cleavage": 0.01}
{"variant": "GGCAGAGCUAACCACAGAGUGGCAAAGUGGCUGUGGCUAGACUGCA", "self-cleavage": 0.02}
{"variant": "GGCAGAGCUAAACUCAGCGUGGCACAGUGGUUGUGGCUAGCCUGGC", "self-cleavage": 0.02}
{"variant": "GGCAGAGCUAAGCACAGCGUGGCAAAUUGGCUGUGGCUAGACUGCC", "self-cleavage": 0.04}
{"variant": "GGCAGAGCUAAACACGGCGUGGCAAAGUGGCUGUGGCUAGAAUGCG", "self-cleavage": 0.02}
{"variant": "GGCAGAGCUAUACACAGAGUGGCAAAUUGGCUGUGGCUAGACUGCC", "self-cleavage": 0}
{"variant": "GGCAGAGCUAAACCCAGCGUGGCAAAGUGGUUGUGGCUAGACUGCU", "self-cleavage": 0.05}
{"variant": "GGCAGAGCUACACACAUCGUGGCAAAGUGGCUGUGGCUAGACUGCC", "self-cleavage": 0.05}
{"variant": "GGCAGAGCUACACACAGCGUGGCAAAGUGGCUGUUGGUAGACUGCC", "self-cleavage": 0.01}
{"variant": "GGCAGAGCUAAACACGGCGUGGCGAAGUGGCUGUGGCUUGUCUGCC", "self-cleavage": 0.04}
{"variant": "GGCAGAGCUAAACACGGCGUGACAAAGUGGCUGUGGCUAGACUGCC", "self-cleavage": 0.04}
{"variant": "GGCAGAGCUAUACACAGCGUGGCAAAGUGCCUCUGGCUAGUCAGCC", "self-cleavage": 0}
{"variant": "GGCAGAGCUAACCAGAGAGUGGCAAAGUGGCUUUGGCGAGACUGCC", "self-cleavage": 0.11}
{"variant": "GGCAGAGCUAAACUCAGCGUGGCAAAGUGGCUGUGGCUAGACUUCC", "self-cleavage": 0.01}
{"variant": "GGCAGAGCUAUACACAGCGGGGCAAGGUGGCUGUGGCUAGACUGGC", "self-cleavage": 0}
{"variant": "GGCAGAGCUACACACAGCGUGGCCAAGUGGCUGUGGCUAGAUUACC", "self-cleavage": 0.01}
{"variant": "GGCAGAGCUAAACCCAGCGUGGCCAAGUGGCUGUGGCUAGACUGCC", "self-cleavage": 0}
{"variant": "GGCAGAGCUAAACUCAGCGUGGCAAAGUGGGUGUGGCUAGACUGCC", "self-cleavage": 0.02}
{"variant": "GGCAGAGCGCAACACAGCGUGGCAAAGUGGCUGGGGCUAGACAGCC", "self-cleavage": 0.03}
{"variant": "GGCAGAGCUAGACACAGCGUUGCAAAGUGGCGGUGGCUAGACUGCU", "self-cleavage": 0.01}
{"variant": "GGCAGAGCUACACACAGCGUGGCAAAGUGCCUGUGGCUAGACUGCC", "self-cleavage": 0.02}
{"variant": "GGCAGAGCUACACACAGCGUGGCAAAGUGACUGUGGCUAGACUGCC", "self-cleavage": 0.02}
{"variant": "GGCAGAGCUAUACCCAGCGUGGCAAAGUGGCUGUGGCUAGAAUGCC", "self-cleavage": 0}
{"variant": "GGCAGAGCUAAACACCGCGUGGCAAAGUGGCUGUUGCUAGACUGCC", "self-cleavage": 0.01}
{"variant": "GGCAGAGCUAAACUCAGCGUGGCAACCUGGCUGUGGCUAGACUGCC", "self-cleavage": 0.02}
{"variant": "GGCAGAGCUACACGCAGCGUGGCAAAGUGGCUGUGGCUAGACUGCC", "self-cleavage": 0}
{"variant": "GGCAGAGCUAAACGCAGCGUUGCAAAGUGGCUGUGGCUAGACUGAC", "self-cleavage": 0.05}
{"variant": "GGCAGAGCUAAACCCAGCGUGGCAAAGUGGCUGUGGCAUGCCAGCC", "self-cleavage": 0.02}
{"variant": "GGCAGAGCUAUACACAGCGUGGCAAAGGGGAUAUGGCUAGACUGCC", "self-cleavage": 0}
{"variant": "GGCAGAGCUAACCACAGCGUGGCAGAGUGGCUGUGGCUAGACUGCC", "self-cleavage": 0}
{"variant": "GGCAGAGCUAAACCCACCGUGGCAUAGAGUCUGUGGCUAGACUGCC", "self-cleavage": 0}
{"variant": "GGCAGAGCUAAACCCAGCGUCGCAAAGUAGCUGUGGCUAGACUGCC", "self-cleavage": 0.03}
{"variant": "GGCAGAGCUAAACACGGCGUGGCAAAGUGGCUGUUGCUAGAAUGCU", "self-cleavage": 0.18}
{"variant": "GGCAGAGCUAAACCCAGGGUGGCAGAGUGGCUGUGGCUAGAUUGCC", "self-cleavage": 0}
{"variant": "GGCAGAGCUAAACACGGCGUGGCAAAGCGUCUGUGGCUAGACUGCC", "self-cleavage": 0.01}
{"variant": "GGCAGAGCUAUACACAGCGUGGCAAAGUGGCUGUGGCUAUACUGCC", "self-cleavage": 0.02}
{"variant": "GGCAGAGCUAAUCACAGGGGGGCAAAGUGGCUGUGGCUAGACUGCC", "self-cleavage": 0}
{"variant": "GGCAGAGCUAAACACCGCGUGGCAAAGUGGCUGUGGCUAGAUCGCA", "self-cleavage": 0}
